The campaign covered roughly 3,200 compounds. About 75 (2%) showed an effect of 50% or more. Some of the results follow.
system: T1, S. aureus MSSA476; design: species or system S. aureus MSSA476 (TSB) or V. cholerae SAD30 (LB); 384-well bacterial growth screen at 25 uM, OD600 relative to DMSO control; settings: relative growth, OD600, TSB; 25 µM; inhibitor
T1 construct: MSSA476

SMILES | % of control remaining
Cc1ccc(NC(=O)CN2CCN(C(=O)CCl)CC2)cc1.Cl [4-D16, 2-[4-(2-chloroacetyl)piperazin-1-yl]-N-(4-methylphenyl)acetamide hydrochloride] | 131.872%
O=C(CCl)N(Cc1cnn(-c2ccccc2)c1)C1CC1 [6-L09, 2-chloro-N-cyclopropyl-N-[(1-phenyl-1H-pyrazol-4-yl)methyl]acetamide] | 96.6341%
Cc1cc2ncn(CC(NC(=O)C(C)Cl)C3CC3)c2cc1C (centres unmarked) [7-J17, 2-chloro-N-[1-cyclopropyl-2-(5,6-dimethyl-1H-1,3-benzodiazol-1-yl)ethyl]propanamide] | 117.425%
CC(C)c1ccc(Cn2[nH]ccc2=NC(=O)CCl)cc1 [5-P12, 2-chloro-N-(2-{[4-(propan-2-yl)phenyl]methyl}-2,3-dihydro-1H-pyrazol-3-ylidene)acetamide] | 96.1749%
CC(Cl)C(=O)NC1c2cc(F)ccc2CC1C (centres unmarked) [7-E16, 2-chloro-N-(6-fluoro-2-methyl-2,3-dihydro-1H-inden-1-yl)propanamide] | 106.75%
C=CC(=O)NCc1ccc(C(=O)N2CCCCC(SC)C2)cc1 (centres unmarked) [2-B20, N-({4-[3-(methylsulfanyl)azepane-1-carbonyl]phenyl}methyl)prop-2-enamide] | 123.238%
CC(Cl)C(=O)NCCc1nc(C2CCCCC2)cs1 (centres unmarked) [7-F09, 2-chloro-N-[2-(4-cyclohexyl-1,3-thiazol-2-yl)ethyl]propanamide] | 109.576%
N#CC(=Cc1ccc(Cl)cc1)C(=O)Nc1ccccn1 [9-H16, 3-(4-chlorophenyl)-2-cyano-N-(pyridin-2-yl)prop-2-enamide] | 89.2884%
C=CC(=O)NCC(CC)n1nc(C)cc1C (centres unmarked) [1-K21, N-[2-(3,5-dimethyl-1H-pyrazol-1-yl)butyl]prop-2-enamide] | 106.549%
C=CC(=O)NCc1nc(-c2ccccc2)oc1C [3-C05, N-[(5-methyl-2-phenyl-1,3-oxazol-4-yl)methyl]prop-2-enamide] | 104.832%
Cc1nn(C)c(C)c1C=C(C#N)C(=O)Nc1ccccc1F [9-I07, 2-cyano-N-(2-fluorophenyl)-3-(1,3,5-trimethyl-1H-pyrazol-4-yl)prop-2-enamide] | 101.273%
CC(Cl)C(=O)Nc1ccccc1OC(F)F (centres unmarked) [6-J08, 2-chloro-N-[2-(difluoromethoxy)phenyl]propanamide] | 92.878%
N#CC(=Cc1ccc(C(F)(F)F)cc1)C(=O)Nc1ccccc1 [9-I04, 2-cyano-N-phenyl-3-[4-(trifluoromethyl)phenyl]prop-2-enamide] | 99.7753%
C=CC(=O)N1CCC(CCO)c2ccccc21 (centres unmarked) [3-O03, 1-[4-(2-hydroxyethyl)-1,2,3,4-tetrahydroquinolin-1-yl]prop-2-en-1-one] | 111.798%
C=CC(=O)Nc1ccc(C)cc1S(=O)(=O)N1CCOCC1 [1-O13, N-[4-methyl-2-(morpholine-4-sulfonyl)phenyl]prop-2-enamide] | 117.099%
CC(Cl)C(=O)Nc1ccc(Cl)c(S(=O)(=O)N(C)C)c1 (centres unmarked) [5-G21, 2-chloro-N-[4-chloro-3-(dimethylsulfamoyl)phenyl]propanamide] | 102.368%
COc1ccc(CNC(=O)C(C)Cl)cc1OC (centres unmarked) [6-P10, 2-chloro-N-[(3,4-dimethoxyphenyl)methyl]propanamide] | 91.5122%
Cc1cc(C(=O)CCl)c(C)n1Cc1cccs1 [10-D03, 2-chloro-1-{2,5-dimethyl-1-[(thiophen-2-yl)methyl]-1H-pyrrol-3-yl}ethan-1-one] | 122.5%
COc1ccc(CN(C)C(=O)CCl)cc1 [6-M15, 2-chloro-N-[(4-methoxyphenyl)methyl]-N-methylacetamide] | 90.8293%
C=CC(=O)Nc1sc2c(c1C(=O)c1ccc(C)cc1)CCOC2 [1-J22, N-[3-(4-methylbenzoyl)-4H,5H,7H-thieno[2,3-c]pyran-2-yl]prop-2-enamide] | 128.703%
O=C(CCl)Nc1ccccc1C(=O)Nc1ccc(Cl)cc1 [4-G10, 2-(2-chloroacetamido)-N-(4-chlorophenyl)benzamide] | 96.808%
CN1C(=O)Cc2cc(C(=O)CCl)ccc21 [10-G07, 5-(2-chloroacetyl)-1-methyl-2,3-dihydro-1H-indol-2-one] | 132.813%

SMILES | % of control remaining
N#CC(=Cc1c(F)c(F)c(F)c(F)c1F)C(=O)NC1CCCCC1 [8-O15, 2-cyano-N-cyclohexyl-3-(2,3,4,5,6-pentafluorophenyl)prop-2-enamide] | 32.5311%
Cc1cc(Cl)ccc1CN1CCN(C(=O)C(C)Cl)CC1 (centres unmarked) [5-B13, 2-chloro-1-{4-[(4-chloro-2-methylphenyl)methyl]piperazin-1-yl}propan-1-one] | 101.639%
C=CC(=O)N(Cc1nccc2c1CCCC2)C1CCCC(OC)C1 (centres unmarked) [1-F11, N-(3-methoxycyclohexyl)-N-[(5,6,7,8-tetrahydroisoquinolin-1-yl)methyl]prop-2-enamide] | 90.022%
C=CC(=O)NC1CCS(=O)(=O)c2ccc(F)cc21 (centres unmarked) [2-J19, N-(6-fluoro-1,1-dioxo-3,4-dihydro-2H-1lambda6-benzothiopyran-4-yl)prop-2-enamide] | 104.439%
C=CC(=O)NCCNS(=O)(=O)c1cc(C)sc1C [3-C21, N-[2-(2,5-dimethylthiophene-3-sulfonamido)ethyl]prop-2-enamide] | 105.181%
Cc1ccc(C=C(C#N)C(=O)Nc2nccs2)o1 [9-P10, 2-cyano-3-(5-methylfuran-2-yl)-N-(1,3-thiazol-2-yl)prop-2-enamide] | 83.8951%
Cc1ccc(F)c(S(=O)(=O)NCCNC(=O)CCl)c1 [7-P12, 2-chloro-N-[2-(2-fluoro-5-methylbenzenesulfonamido)ethyl]acetamide] | 74.7253%
Cc1cccc(NC(=O)c2ccccc2NC(=O)CCl)c1 [4-C10, 2-(2-chloroacetamido)-N-(3-methylphenyl)benzamide] | 115.484%
N#CC(=Cc1ccc(OC(F)F)cc1)C(=O)Nc1ccccc1 [9-G15, 2-cyano-3-[4-(difluoromethoxy)phenyl]-N-phenylprop-2-enamide] | 122.247%
Cc1cc(C(=O)CCl)c(C)n1-c1ccc(C(F)(F)F)cc1 [10-J14, 2-chloro-1-{2,5-dimethyl-1-[4-(trifluoromethyl)phenyl]-1H-pyrrol-3-yl}ethan-1-one] | 0%
C=CC(=O)N1CCC(C(=O)Nc2ccc(CC)cc2)CC1 [3-J12, N-(4-ethylphenyl)-1-(prop-2-enoyl)piperidine-4-carboxamide] | 97.5185%
CC(Cl)C(=O)N1CCC(NS(=O)(=O)c2cccs2)CC1 (centres unmarked) [7-L07, N-[1-(2-chloropropanoyl)piperidin-4-yl]thiophene-2-sulfonamide] | 108.32%
C=CC(=O)N1CCOC(c2cnn(C)c2)C1 (centres unmarked) [3-K11, 1-[2-(1-methyl-1H-pyrazol-4-yl)morpholin-4-yl]prop-2-en-1-one] | 119.808%
CC(Cl)C(=O)N(Cc1ccco1)C1CCN(C)CC1 (centres unmarked) [7-L17, 2-chloro-N-[(furan-2-yl)methyl]-N-(1-methylpiperidin-4-yl)propanamide] | 85.4003%
Cc1c(NC(=O)CCl)c(=O)n(-c2ccccc2)n1C [5-G17, 2-chloro-N-(1,5-dimethyl-3-oxo-2-phenyl-2,3-dihydro-1H-pyrazol-4-yl)acetamide] | 107.468%
C=CC(=O)N1CCOC(Cn2nc(C)nc2C)C1 (centres unmarked) [1-B09, 1-{2-[(3,5-dimethyl-1H-1,2,4-triazol-1-yl)methyl]morpholin-4-yl}prop-2-en-1-one] | 123.78%
C=CC(=O)Nc1ccc2ccn(CCN(C)C)c2c1 [1-L21, N-{1-[2-(dimethylamino)ethyl]-1H-indol-6-yl}prop-2-enamide] | 117.802%
CC(Cl)C(=O)Nc1ccc(Cc2nnc3ncccn23)cc1 (centres unmarked) [7-O22, 2-chloro-N-[4-({[1,2,4]triazolo[4,3-a]pyrimidin-3-yl}methyl)phenyl]propanamide] | 88.54%
C=CC(=O)NC1(c2nc(C)no2)CC1 [3-L09, N-[1-(3-methyl-1,2,4-oxadiazol-5-yl)cyclopropyl]prop-2-enamide] | 116.326%
C=CC(=O)NC(C)C1(S(C)(=O)=O)CC1 (centres unmarked) [2-P05, N-[1-(1-methanesulfonylcyclopropyl)ethyl]prop-2-enamide] | 80.7659%
Cc1ccccc1NC(=O)C(C#N)=Cc1cc(C)n(C2CC2)c1C [8-A16, 2-cyano-3-(1-cyclopropyl-2,5-dimethyl-1H-pyrrol-3-yl)-N-(2-methylphenyl)prop-2-enamide] | 98.2573%
CC(C)C(NC(=O)CCl)c1ccc(Cl)cc1F (centres unmarked) [7-J22, 2-chloro-N-[1-(4-chloro-2-fluorophenyl)-2-methylpropyl]acetamide] | 84.4584%
